The target of assay [1] is T1, Biotin-labeled FcRn proteins (ACRO Biosystem, Cat. No. FCM-H8286) (UniProt P55899 fragment; P61769 fragment). Briefly: ELISA at pH 7.0, antibody coated, biotin-labeled FcRn titrated.
In assay [2] the target is T1, Biotin-labeled FcRn proteins (ACRO …). Nature of the assay: ELISA at pH 6.0, antibody coated, biotin-labeled FcRn titrated.

T1 sequence (P55899 24-297 limits assumed, chain 1 of 2): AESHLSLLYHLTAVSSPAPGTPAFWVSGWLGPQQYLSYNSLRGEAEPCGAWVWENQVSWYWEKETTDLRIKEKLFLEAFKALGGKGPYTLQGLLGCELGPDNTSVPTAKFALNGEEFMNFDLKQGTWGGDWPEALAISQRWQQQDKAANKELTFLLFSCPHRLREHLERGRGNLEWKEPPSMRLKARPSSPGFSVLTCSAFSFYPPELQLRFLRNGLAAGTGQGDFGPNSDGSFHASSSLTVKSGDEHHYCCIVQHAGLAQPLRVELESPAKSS
T1 sequence (P61769 21-119 limits assumed, chain 2 of 2, further chain): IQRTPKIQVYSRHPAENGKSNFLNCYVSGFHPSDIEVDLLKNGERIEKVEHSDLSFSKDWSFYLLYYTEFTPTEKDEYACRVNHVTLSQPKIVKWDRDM

B1: Bispecific antibody AB7K7 (Anti-Her2×CD3, scFv-scFv-Fc, tetravalent homodimer) (bispecific antibody)
chain: [about 120 residues left out here]GGGGSGGGGSGGGGS[about 100 residues left out here]GGGGGGSGGGGSGGGGSSSSSKAPPPSEVQLLESGGGLVQPGGSLKLSCAASGFTFNTYAMNWVRQAPGKGLEWVARIRSKYNNYATYYADSVKDRFTISRDDSKNTAYLQMNNLKTEDTAVYYCVRHGNFGNSYVSWFAYWGQGTLVTVSSGGGGSGGGGSGGGGSELVVTQEPSLTVSPGGTVTLTCRSSTGAVTTSNYANWVQQKPGQAPRGLIGGTNKRAPGTPARFSGSLLGGKAALTLSGVQPEDEAEYYCALWYSNLWVFGGGTKLTVLDKTHTCPPCPAPEAAGGPSVFLFPPKPKDQLMISRTPEVTCVVVDVSHEDPEVKFNWYVDGVEVHNAKTKPREEQYASTYRVVSVLTVLHQDWLNGKEYKCKVSNKALPASIEKTISKAKGQPREPQVYTLPPSRDELTKNQVSLTCLVKGFYPSDIAVEWESNGQPENNYKTTPPVLDSDGSFFLYSKLTVDKSRWQQGNVFSCSVLHEALHNHYTQKSLSLSPG
B1: the concentration giving a half-maximal response (EC50) (commonly the midpoint of the concentration-response curve) in assay [1] was determined as 4.84 µg/mL; in assay [2], 0.463 µg/mL.

B2: Bispecific antibody AB7K5 (Anti-Her2×CD3, scFv-mFc-scFv, single-chain bivalent) (bispecific antibody)
chain: [about 120 residues left out here]GGGGSGGGGSGGGGS[about 100 residues left out here]DKTHTSPPSPAPEAAGGPSVFLFPPKPKDQLMISRTPEVTCVVVDVSHEDPEVKFNWYVDGVEVHNAKTKPREEQYASTYRVVSVLTVLHQDWLNGKEYKCKVSNKALPASIEKTISKAKGQPREPQVYTLPPSRDELTKNQVSLRCHVKGFYPSDIAVEWESNGQPENNYKTTPPVLDSDGSFFLYSTLTVDKSRWQQGNVFSCSVLHEALHNHYTQKSLSLSPGGGGGGGSGGGGSGGGGSSSSSKAPPPSEVQLLESGGGLVQPGGSLKLSCAASGFTFNTYAMNWVRQAPGKGLEWVARIRSKYNNYATYYADSVKDRFTISRDDSKNTAYLQMNNLKTEDTAVYYCVRHGNFGNSYVSWFAYWGQGTLVTVSSGGGGSGGGGSGGGGSELVVTQEPSLTVSPGGTVTLTCRSSTGAVTTSNYANWVQQKPGQAPRGLIGGTNKRAPGTPARFSGSLLGGKAALTLSGVQPEDEAEYYCALWYSNLWVFGGGTKLTVL
For B2, the EC50 in assay [1] came to 13.4 µg/mL; in assay [2], 1.71 µg/mL.
